This is one part of the list. At the low end of the ranking the order means little.
molecular target: T1, GST-Rok (full length) (UniProt O34857); experiment: protein binding microarray; details: Rok is a gene silencer of Bacillus subtilis; high values mean tight binding; most listed sequences are background and not binding sites; double strand, one strand shown;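 note: rank score from −0.5 (least bound) to 0.5 (best bound)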
T1 sequence: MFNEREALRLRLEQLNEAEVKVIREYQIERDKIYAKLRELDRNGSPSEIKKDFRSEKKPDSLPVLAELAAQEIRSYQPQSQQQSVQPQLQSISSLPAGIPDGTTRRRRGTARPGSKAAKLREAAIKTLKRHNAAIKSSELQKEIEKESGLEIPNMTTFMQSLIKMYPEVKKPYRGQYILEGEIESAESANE

Sequence | binding signal [E-score]
CGAGTAAG | -0.156
CAATAGCA | 0.101
ATCACTGG | -0.0489
GCAGATCA | -0.0662
CGTCCCGC | -0.238
CAAGCGTA | -0.175
ATCAACCA | 0.0381
AGTGAAGG | -0.267
GCTAATAA | 0.0777
GGGAACGA | -0.163
CGATCTAA | -0.00615
ATGCTATC | 0.208
TGATAGCA | 0.263
CCAACAGC | -0.1
AACAACAA | 0.0134
AGCAGCTG | -0.25
GTCTCTGA | -0.0376
GTAACTCA | 0.22
AGAAATCC | 0.0902
AATACTCC | 0.254
ATTAGATC | 0.293
AGACCGCC | -0.271
TATCGGGA | 0.167
CCGCGGAC | -0.169
ACAGAACC | -0.171

Sequence | binding signal [E-score]
AAGTGGGC | -0.172
CTGATATC | 0.0327
CACAGCAC | -0.155
CGCTAGCA | -0.0113
CAATCCAG | 0.0683
GCCATGGC | -0.269
CGAGCCCA | -0.227
CCGTTAGA | -0.0963
CATGAGGC | -0.198
ATAGAACG | 0.11
AAACGTGA | 0.144
AGACAGGC | -0.143
CAGTCGCG | -0.187
CTCTGTGA | 0.00234
CAAGACGA | -0.0692
CAAAGGAC | -0.116
GTGGTGGA | -0.132
AGCTATCG | 0.224
TCTCCAAA | 0.089
AAATGTAT | 0.281
CTGAAAGC | -0.133
AGAGTAGA | 0.0878
AAGCCGAG | -0.0966
CGTTAATC | -0.0865
CAGGTGGA | -0.213

Sequence | binding signal [E-score]
CGATACCA | -0.0203
CTAGCGAC | -0.128
AGAACCAT | 0.144
CTCCCAAC | -0.0944
GGTAGATA | 0.451
ACCTCACG | -0.0956
AGCGTACC | -0.18
CCATATAA | 0.229
CAGGTAAG | -0.187
TCTCCTCA | -0.207
AAGCATGG | -0.206
CGTGTATA | 0.231
ACCACGGG | 0.0041
ACTTACTC | -0.0454
ACGAGGAG | -0.25
CACCCACG | -0.0687
CGATCGTA | 0.205
CGTAAACA | 0.00287
CCCCAGAG | -0.367
TCAGTAAA | 0.156
AGGAGGTA | -0.0728
ACTCCGAC | -0.0824
GATCGAGC | -0.00576
CAATCATA | 0.249
CTCGATAA | -0.00299

Sequence | binding signal [E-score]
AACGGAAC | -0.029
CAGTCTAG | -0.11
CCTGATAC | 0.0473
CAAGGAAC | -0.117
AAAAACAA | 0.0979
CAGAGGGG | -0.339
CTCAGACA | -0.0291
AATGTAGC | 0.221
AACTGGGT | -0.0493
GGGTGCGA | -0.193
AAGGTGAT | 0.0467
CGGATGGC | -0.25
ACTGTAGA | 0.373
AGTACCCC | -0.229
ATACTCAC | 0.138
AATAACAA | 0.222
ACATGTCA | 0.0484
TCATGAGA | 0.103
ACAGCAAT | 0.231
CTCCGAAA | -0.0499
GAATGCTC | -0.0772
CCACACAG | -0.261
AATCTAGG | 0.231
GGTCATTA | -0.136
ACGCCGCT | -0.055

Sequence | binding signal [E-score]
CAACTATG | 0.196
CGCGGTCA | -0.241
GTACTTCA | 0.225
TCGTGACA | -0.14
ATCTTCTG | 0.117
ATCAGACC | -0.137
AGAATGGA | -0.0221
GACTTCGC | -0.0491
CCTACATC | 0.0941
ACTGCGCA | -0.00651
CAGCGTGC | -0.252
ACTCGGTG | 0.0069
CACGAACC | -0.0697
CGCGCGGC | -0.36
AAGGAACG | -0.179
ACGCTACT | 0.205
CAGGCGAA | -0.183
GGTGAATA | 0.0473
TCGAATAA | 0.0382
ATTCTCTA | 0.177
GATCCATA | -0.0316
CGGTCTTA | 0.0367
CCCTCAAC | -0.112
TGCCCCAA | -0.187
GGTTAGTA | 0.0365

Sequence | binding signal [E-score]
GAATCGGA | -0.0832
CACATCCG | -0.0475
CCCGAACC | -0.294
GGAATAAC | -0.0551
ACATGCGG | 0.0454
AGAAGTAA | 0.164
AACCGGCG | -0.126
TAAAACAA | 0.203
ATAGTGTG | 0.134
TAATCACA | 0.134
AATTATAC | 0.377
CCCCCCGA | -0.493
CCGGAAGC | -0.291
CGAAATAG | 0.000759
GGAGGGAC | -0.384
ACAGGTCG | -0.197
ACCAAGAC | -0.0363
CACGGACA | -0.383
GACCGAGA | -0.0507
ACAGTTGA | 0.166
ATCGGGAC | -0.0956
CCGTGGAG | -0.0755
ATTTATAC | 0.356
TAACGTAA | 0.0669
GCTCTTAA | -0.116

Sequence | binding signal [E-score]
TCTTCCAA | -0.105
CGGATGTA | 0.0664
CACGTTTC | 0.0138
GAGCAGAA | -0.113
ACTCCATC | 0.0464
ATCGATTA | 0.0063
AGGCTCGC | -0.328
CCACTGCA | -0.0838
AGTACGAT | 0.134
AAATGGTG | -0.0649
ATAGTTTA | 0.346
AGCTCGTA | -0.164
CGCGGCCA | -0.306
CGTGCGCC | -0.304
GACGCACA | -0.339
ATAGTGGG | 0.128
ACGCGCCT | -0.254
ATTTATGG | 0.218
ACCCAGCG | 0.0259
CTACGCGC | -0.112
ACTAAACA | 0.0776
AACATAAG | 0.23

From article PMC6212790
